Reference: patent US20250381289A1 (Genmab, published 2025)
Numbering of substitutions follows the chain as printed. Where two headings read alike, the source gives them in different places.

Tests used:
Test in all cases: flow cytometry, EBC-1 cells (co-express EGFR and cMET; both arms contribute)
[1] = target: T1, cMET on EGFR and cMET co-expressed tumor cell lines (UniProt P08581)
T1 construct: whole, on cells

[2] = target: T1, cMET on EGFR and cMET co-expressed …; remark: listed apart in the source
[3] = target: T2, EGFR on EGFR and cMET co-expressed tumor cell lines (UniProt P00533)
T2 construct: whole, on cells

T1 sequence (P08581 25-1390 limits assumed): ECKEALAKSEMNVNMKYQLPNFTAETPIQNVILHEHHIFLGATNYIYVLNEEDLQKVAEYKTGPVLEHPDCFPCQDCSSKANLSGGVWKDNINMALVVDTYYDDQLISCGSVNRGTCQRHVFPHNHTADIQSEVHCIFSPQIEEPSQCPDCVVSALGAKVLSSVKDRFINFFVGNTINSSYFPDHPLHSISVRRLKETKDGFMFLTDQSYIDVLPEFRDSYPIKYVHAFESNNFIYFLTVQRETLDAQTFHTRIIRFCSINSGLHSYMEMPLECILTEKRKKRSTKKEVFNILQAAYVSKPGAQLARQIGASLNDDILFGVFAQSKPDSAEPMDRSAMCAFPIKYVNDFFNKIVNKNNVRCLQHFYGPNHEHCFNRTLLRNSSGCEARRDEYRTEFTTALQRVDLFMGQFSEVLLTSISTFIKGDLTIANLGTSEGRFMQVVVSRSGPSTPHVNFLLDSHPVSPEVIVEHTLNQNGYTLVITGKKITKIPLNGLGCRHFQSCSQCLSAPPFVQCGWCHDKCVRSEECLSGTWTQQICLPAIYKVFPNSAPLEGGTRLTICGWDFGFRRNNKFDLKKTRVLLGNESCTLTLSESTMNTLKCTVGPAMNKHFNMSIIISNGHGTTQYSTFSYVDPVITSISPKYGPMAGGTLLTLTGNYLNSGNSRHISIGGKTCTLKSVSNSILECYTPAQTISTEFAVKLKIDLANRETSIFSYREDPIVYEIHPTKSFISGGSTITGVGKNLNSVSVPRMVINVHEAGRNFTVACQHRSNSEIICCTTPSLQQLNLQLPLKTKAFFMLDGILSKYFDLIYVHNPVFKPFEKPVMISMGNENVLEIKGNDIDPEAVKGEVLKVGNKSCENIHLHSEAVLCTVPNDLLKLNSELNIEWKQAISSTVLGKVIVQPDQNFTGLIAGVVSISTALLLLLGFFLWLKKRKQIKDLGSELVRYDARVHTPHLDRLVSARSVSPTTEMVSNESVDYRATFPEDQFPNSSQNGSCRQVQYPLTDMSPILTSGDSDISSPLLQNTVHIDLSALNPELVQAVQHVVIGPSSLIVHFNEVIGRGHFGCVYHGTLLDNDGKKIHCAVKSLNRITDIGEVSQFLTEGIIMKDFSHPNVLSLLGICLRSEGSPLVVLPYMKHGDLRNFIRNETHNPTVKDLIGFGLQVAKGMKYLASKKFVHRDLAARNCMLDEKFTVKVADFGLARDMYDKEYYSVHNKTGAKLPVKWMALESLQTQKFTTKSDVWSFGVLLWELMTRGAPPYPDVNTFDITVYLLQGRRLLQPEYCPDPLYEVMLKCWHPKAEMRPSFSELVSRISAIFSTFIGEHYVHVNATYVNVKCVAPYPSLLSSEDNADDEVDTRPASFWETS

B1: Bsab 6 (bispecific antibody, human IgG1, kappa, L234A L235A)
chain 1: AIQLTQSPSSLSASVGDRVTITCRASQDISSALVWYQQKPGKAPKLLIYDASSLESGVPSRFSGSESGTDFTLTISSLQPEDFATYYCQQFNSYPLTFGGGTKVEIKRTVAAPSVFIFPPSDEQLKSGTASVVCLLNNFYPREAKVQWKVDNALQSGNSQESVTEQDSKDSTYSLSSTLTLSKADYEKHKVYACEVTHQGLSSPVTKSFNRGECGGGGSGGGGSGGGGSGGGGSGGGGSGGGGSGGGGSGGGGSQVQLVESGGGVVQPGRSLRLSCAASGFTFSTYGMHWVRQAPGKGLEWVAVIWDDGSYKYYGDSVKGRFTISRDNSKNTLYLQMNSLRAEDTAVYYCARDGITMVRGVMKDYFDYWGQGTLVTVSSASTKGPSVFPLAPSSKSTSGGTAALGCLVKDYFPEPVTVSWNSGALTSGVHTFPAVLQSSGLYSLSSVVTVPSSSLGTQTYICNVNHKPSNTKVDKKV[omitted - human IgG1 Fc with L234A L235A Y349C T366W (EU numbers)]
chain 2: DIVMTQSPDSLAVSLGERATINCKSSESVDSYANSFLHWYQQKPGQPPKLLIYRASTRESGVPDRFSGSGSGTDFTLTISSLQAEDVAVYYCQQSKEDPLTFGGGTKVEIKRTVAAPSVFIFPPSDEQLKSGTASVVCLLNNFYPREAKVQWKVDNALQSGNSQESVTEQDSKDSTYSLSSTLTLSKADYEKHKVYACEVTHQGLSSPVTKSFNRGECGGGGSGGGGSGGGGSGGGGSGGGGSGGGGSGGGGSGGGGSQVQLVQSGAEVKKPGASVKVSCKASGYIFTAYTMHWVRQAPGQGLEWMGWIKPNNGLANYAQKFQGRVTMTRDTSISTAYMELSRLRSDDTAVYYCARSEITTEFDYWGQGTLVTVSSASTKGPSVFPLAPSSKSTSGGTAALGCLVKDYFPEPVTVSWNSGALTSGVHTFPAVLQSSGLYSLSSVVTVPSSSLGTQTYICNVNHKPSNTKVDKKVEPKSCDKTHTCPPCPAPEAAGGPSVFLFPPKPKDTLMISRTPEVTCVVVDVSHEDPEVKFNWYVDGVEVHNAKTKPREEQYNSTYRVVSVLTVLHQDWLNGKEYKCKVSNKALPAPIEKTISKAKGQPREPQVYTLPPCRDELTKNQVSLSCAVKGFYPSDIAVEWESNGQPENNYKTTPPVLDSDGSFFLVSKLTVDKSRWQQGNVFSCSVMHEALHNHYTQKSLSLSPGK
notes: 1+1 scFab knob-in-hole format; also called Basb 6
- EC50 (read off the curve) [1]: ~2 nM
- EC50 (read off the curve) [2]: ~3 nM

B2: Bsab 81 (bispecific antibody, human IgG1, kappa, L234A L235A)
chain 1: B1 chain 1 with S9E, S60D, K297E
chain 2: B1 chain 2
notes: 1+1 scFab knob-in-hole format; also called Basb 81
- EC50 (read off the curve) [2]: ~3 nM
- EC50 (read off the curve) [3]: ~3 nM
